Experimental data reported in PubChem BioAssay (Tox21).
Where “and” joins values, the source holds several entries; their conditions need not be identical. Equal values may be shown once. Inconclusive results, whose numbers are uncertain, are shown with a selection of clear calls. For some assays here: Where the call is inconclusive, the potency comes from a doubtful curve fit. Calls of active or inactive are those of the source. Unless noted, the call rests on the fitted dose curve; in most records, active means well fitted curve in the direction sought with a large enough effect in the repeat runs; inconclusive means weak or mixed curves; inactive means no such curve, though single readings can be large; an effect the other way counts as inactive or inconclusive.

Tests used:
[1] = qHTS assay to identify small molecule agonists of the hypoxia (HIF-1) signaling pathway (AID 1224846; active means well fitted activation curve with a large enough effect in the signal ratio in the repeat runs, not every such curve was filed as active; inconclusive means weak or mixed curves; the % refers to the signal ratio); settings: HRE-bla ME-180 cells, beta-lactamase ratio, 17 h; series mostly up to 76.8 µM
Method in brief: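 HRE-bla ME-180 cells (beta-lactamase reporter under hypoxia response element) were plated at 2,000 cells/well in medium with 0.5% dialyzed FBS, rested 5 hrs, then given compounds in DMSO for 17 hrs at 37C, 5% CO2. Reporter induction was read with CCF4-AM FRET substrate.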

[2] = qHTS assay to identify small molecule agonists of H2AX - cell viability counter screen (AID 1224847; calls by dose curve; further: nearly all actives have a fitted effect of over 30% in size)
Method in brief: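 CHO-K1 wt, 1000 cells/well, o/n 37C; cpds 15 conc, 3 h 37C, 0.76% DMSO; CellTiter-Glo, 30 min RT, luminescence.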

[3] = qHTS assay to identify small molecule antagonists of the estrogen related receptor (ERR) signaling pathway from Tox21 library (AID 1224848); further: nearly all actives have a fitted effect of over 50% in size
Method in brief: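 Antagonist-mode screen of the Tox21 10K library in an NTP-provided ERR reporter cell line; 18 h compound exposure at 37 C, luminescence measured with ONE-Glo.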

[4] = A CellTox Green Cytotoxicity Assay to monitor cytotoxicity in HEK293 cells - 40 hour (AID 1224871); further: nearly all actives have a fitted effect of over 45% in size
Method in brief: (§1)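 HEK293 cells premixed with CellTox Green dye were seeded at 600 cells/well and left 5 h at 37 C/5% CO2 before pin transfer of 23 nL compound in DMSO. Fluorescence from dye bound to dead-cell DNA was read during 40 h treatment.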

[5] = qHTS RealTime-Glo MT Cell Viability Assay in HepG2 cells - 8 hour (AID 1224873); further: nearly all actives have a fitted effect of over 55% in size
Method in brief: (§2)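 Real-time viability: cells seeded at 600 per well together with NanoLuc and cell-permeant prosubstrate, compounds added after 5 h incubation. Luminescence tracked at 0, 8, 16, 24, 32 and 40 h of exposure.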

[6] = qHTS RealTime-Glo MT Cell Viability Assay in HepG2 cells - 24 hour (AID 1224867); further: nearly all actives have a fitted effect of over 50% in size
Method in brief: (§3)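 HepG2 suspension premixed with RealTime-Glo reagents is plated at 600 cells per well and left 5 h at 37 C/5% CO2. Compounds in DMSO then go in, and bioluminescence reflecting viable cell number is recorded over 40 h.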

[7] = qHTS RealTime-Glo MT Cell Viability Assay in HepG2 cells - 40 hour (AID 1224870); further: nearly all actives have a fitted effect of over 50% in size
Method in brief: as §2

[8] = qHTS RealTime-Glo MT Cell Viability Assay in HEK293 cells - 16 hour (AID 1224872); further: nearly all actives have a fitted effect of over 50% in size
Method in brief: (§4)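 Reads taken at 0, 8, 16, 24, 32 and 40 h from the same wells. HEK293 cells (600/well) carried RealTime-Glo reagents from seeding, with compound added after a 5 h settle at 37 C.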

[9] = qHTS RealTime-Glo MT Cell Viability Assay in HepG2 cells - 32 hour (AID 1224877); further: nearly all actives have a fitted effect of over 55% in size
Method in brief: as §3

[10] = A CellTox Green Cytotoxicity Assay to monitor cytotoxicity in HepG2 cells - 24 hour (AID 1224878); further: nearly all actives have a fitted effect of over 45% in size
Method in brief: (§5)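 HepG2 cells were seeded together with the CellTox Green dye at 600 cells/well, left 5 h at 37 C/5% CO2, then given compounds in DMSO. Fluorescence from dye bound to dead-cell DNA was read repeatedly over 40 h of treatment at 37 C.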

[11] = A CellTox Green Cytotoxicity Assay to monitor cytotoxicity in HepG2 cells - 40 hour (AID 1224879); further: nearly all actives have a fitted effect of over 40% in size
Method in brief: as §5

[12] = A CellTox Green Cytotoxicity Assay to monitor cytotoxicity in HEK293 cells - 32 hour (AID 1224881); further: nearly all actives have a fitted effect of over 40% in size
Method in brief: as §1

[13] = qHTS RealTime-Glo MT Cell Viability Assay in HEK293 cells - 32 hour (AID 1224868); further: nearly all actives have a fitted effect of over 50% in size
Method in brief: as §4

[14] = A CellTox Green Cytotoxicity Assay to monitor cytotoxicity in HEK293 cells - 24 hour (AID 1224875); further: nearly all actives have a fitted effect of over 45% in size
Method in brief: as §1

[15] = qHTS RealTime-Glo MT Cell Viability Assay in HEK293 cells - 0 hour (AID 1224880); further: nearly all actives have a fitted effect of over 45% in size
Method in brief: (§6)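 HEK293 cells mixed with RealTime-Glo reagents (NanoLuc plus cell-permeant prosubstrate) at 600 cells/well, preincubated 5 h at 37 C/5% CO2, then given 23 nL compound in DMSO. Nonlytic luminescence from viable cells was read at 0, 8, 16, 24, 32 and 40 h.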

[16] = qHTS RealTime-Glo MT Cell Viability Assay in HEK293 cells - 40 hour (AID 1224874); settings: RealTime-Glo luminescence; max response: stronger effect = lower value; further: nearly all actives have a fitted effect of over 50% in size
Method in brief: as §6
Potency means the concentration at half of the fitted maximal effect; tags describe the fitted curve by direction and shape or compound fluorescence and quenching.

## Cc1nc2c([nH]1)c(=O)n(C)c(=O)n2Cc1ccco1
[1]
  Potency: inactive

## O=[N+]([O-])C1(Br)COCOC1
[1]
  Potency: inconclusive: 54.9 µM
[2]
  Potency: active: 113 µM
[3]
  Potency: inconclusive: 77 µM [inhibitor, single point]
[4]
  Potency: active: 49 µM
[5]
  Potency: active: 54.9 µM

## OCc1ccccc1O
[1]
  Potency: inactive

## C[Si](NC1CCCCC1)(NC1CCCCC1)NC1CCCCC1
[1]
  Potency: inconclusive: 24.5 µM [rising, partial curve]

## CN(C)c1ccc(C(=N)c2ccc(N(C)C)cc2)cc1
[1]
  Potency: inactive
[2]
  Potency: active: 39.6 µM and active: 24.4 µM
[6]
  Potency: inconclusive: 24.2 µM [falling, partial curve] and inconclusive: 21.1 µM [falling, partial curve]
[7]
  Potency: inconclusive: 48.4 µM [falling, partial curve] and inconclusive: 33.4 µM [falling, partial curve]
[4]
  Potency: inconclusive: 54.3 µM [activator, partial curve, poor fit] and inconclusive: 47.1 µM [activator, single point]
[8]
  Potency: active: 5.43 µM and inconclusive: 5.29 µM [cytotoxic, full curve]
[5]
  Potency: inconclusive: 21.6 µM [falling, partial curve] and inconclusive: 21.1 µM [falling, partial curve]
[9]
  Potency: inconclusive: 43.1 µM [cytotoxic, partial curve] and inconclusive: 21.1 µM [cytotoxic, partial curve]
[10]
  Potency: inconclusive: 21.1 µM [activator, partial curve]
[11]
  Potency: active: 4.31 µM and active: 18.8 µM
[12]
  Potency: inconclusive: 54.3 µM [activator, partial curve, poor fit]

## O=C(O)c1ccccc1
[1]
  Potency: inactive

## COC(=O)c1ccccc1Cl
[1]
  Potency: inactive

## CC(=O)c1ccc(C(C)=O)cc1
[1]
  Potency: inactive

## CCOC(=O)CCCCCCCCC(=O)OCC
[1]
  Potency: inactive

## CC(CO)(CO)CO
[1]
  Potency: inactive

## NCCNCCNCCNCCN
[1]
  Potency: inactive

## CCCCCCCCCCCCCCN(CCO)CCO
[1]
  Potency: inconclusive: 54.9 µM [single point]
[2]
  Potency: active: 89.8 µM
[6]
  Potency: active: 21.9 µM
[13]
  Potency: active: 21.9 µM
[7]
  Potency: active: 17.4 µM
[4]
  Potency: active: 38.9 µM
[8]
  Potency: active: 49 µM
[14]
  Potency: active: 43.6 µM
[9]
  Potency: active: 19.5 µM
[11]
  Potency: active: 13.8 µM
[15]
  Potency: inconclusive: 38.9 µM [rising, partial curve]

## COC(=O)C(c1ccccc1Cl)N1CCc2sccc2C1 (stereo not given)
[1]
  Potency: inactive

## CCOc1ncc(F)c(=O)[nH]1
[1]
  Potency: inactive

## O=C1CCCCCN1SSN1CCCCCC1=O
[1]
  Potency: inconclusive: 61.6 µM
[2]
  Potency: inconclusive: 1.6 µM [cytotoxic, single point]
[6]
  Potency: inconclusive: 54.9 µM [falling, single point]
[13]
  Potency: inactive
[7]
  Potency: inconclusive: 54.9 µM [falling, single point]
[4]
  Potency: active: 49 µM
[5]
  Potency: inactive
[10]
  Potency: inconclusive: 61.6 µM [activator, single point]
[12]
  Potency: inconclusive: 38.9 µM [activator, partial curve, poor fit]

## O=C1c2c(O)ccc(Nc3ccc(CCO)cc3)c2C(=O)c2c([N+](=O)[O-])ccc(O)c21
[1]
  Potency: inconclusive: 61.6 µM [falling, single point]
[2]
  Potency: inconclusive: 89.8 µM [cytotoxic, partial curve]
[6]
  Potency: inconclusive: 49 µM [falling, partial curve, poor fit]
[8]
  Potency: inconclusive: 43.6 µM [cytotoxic, partial curve]
[5]
  Potency: inconclusive: 43.6 µM [falling, partial curve]

## CCSC(=O)N(CC(C)C)CC(C)C
[1]
  Potency: inactive

## O=C1CC[C@@H](C(=O)O)N1
[1]
  Potency: inactive

## CC(C)=O
[1]
  Potency: inactive

## O=C(Nc1ccccc1)c1ccccc1O
[1]
  Potency: inconclusive: 54.9 µM
[2]
  Potency: inconclusive: 56.6 µM [cytotoxic, partial curve]
[3]
  Potency: inconclusive: 68.6 µM [inhibitor, single point]
[13]
  Potency: inconclusive: 15.5 µM [cytotoxic, partial curve]
[7]
  Potency: inconclusive: 61.6 µM [falling, partial curve, poor fit]
[16]
  Potency: inconclusive: 21.9 µM [cytotoxic, partial curve]
[9]
  Potency: inconclusive: 61.6 µM [cytotoxic, partial curve, poor fit]
[10]
  Potency: inactive
[11]
  Potency: inconclusive: 54.9 µM [activator, single point]

## Cc1ccc(NC(=O)N(C)C)cc1NC(=O)N(C)C
[1]
  Potency: inactive
